Experimental data as given in patent publication EP4667483A1, “HUMAN TRANSFERRIN RECEPTOR-BINDING PEPTIDE” (JCR Pharmaceuticals Co., Ltd., priority 2023, dated 2024).
For at least one compound, name, drawing or mass did not settle the structure. Bridge positions count the residues as written; N and C are the ends. Square brackets hold non-standard residues; d marks the D form. Peptide text beside a SMILES is read from it. * marks the point of attachment. Ala(imidazo(1,2-a)pyr3yl) = N[C@@H](Cc1cnc2ccccn12)C(=O)O; Trp(1-CH2COOH) = N[C@@H](Cc1cn(CC(=O)O)c2ccccc12)C(=O)O; NMePhe(4-COOH) = CN[C@@H](Cc1ccc(C(=O)O)cc1)C(=O)O; Phe(3-COOH) = N[C@@H](Cc1cccc(C(=O)O)c1)C(=O)O; NMePhe(3-Cl) = CN[C@@H](Cc1cccc(Cl)c1)C(=O)O; Lys(N3) = [N-]=[N+]=NCCCC[C@H](N)C(=O)O; NMeY = CN[C@@H](Cc1ccc(O)cc1)C(=O)O; Nva(3-Et) = CCC(CC)[C@H](N)C(=O)O; NMeF = CN[C@@H](Cc1ccccc1)C(=O)O; PEG4 = NCCOCCOCCOCCOCCC(=O)O; Carboxymethyl = O=C(O)C*

Key:
[1] = molecular target: T1, human transferrin receptor (hTfR) (Homo sapiens, UniProt P02786); assay: SPR measurement under pH 6.0 conditions (Biacore T200, NTA chip, immobilized hTfR); assay type: binding; details: read-out: hTfR SPR pH6.0 KD
T1 sequence (P02786 whole entry): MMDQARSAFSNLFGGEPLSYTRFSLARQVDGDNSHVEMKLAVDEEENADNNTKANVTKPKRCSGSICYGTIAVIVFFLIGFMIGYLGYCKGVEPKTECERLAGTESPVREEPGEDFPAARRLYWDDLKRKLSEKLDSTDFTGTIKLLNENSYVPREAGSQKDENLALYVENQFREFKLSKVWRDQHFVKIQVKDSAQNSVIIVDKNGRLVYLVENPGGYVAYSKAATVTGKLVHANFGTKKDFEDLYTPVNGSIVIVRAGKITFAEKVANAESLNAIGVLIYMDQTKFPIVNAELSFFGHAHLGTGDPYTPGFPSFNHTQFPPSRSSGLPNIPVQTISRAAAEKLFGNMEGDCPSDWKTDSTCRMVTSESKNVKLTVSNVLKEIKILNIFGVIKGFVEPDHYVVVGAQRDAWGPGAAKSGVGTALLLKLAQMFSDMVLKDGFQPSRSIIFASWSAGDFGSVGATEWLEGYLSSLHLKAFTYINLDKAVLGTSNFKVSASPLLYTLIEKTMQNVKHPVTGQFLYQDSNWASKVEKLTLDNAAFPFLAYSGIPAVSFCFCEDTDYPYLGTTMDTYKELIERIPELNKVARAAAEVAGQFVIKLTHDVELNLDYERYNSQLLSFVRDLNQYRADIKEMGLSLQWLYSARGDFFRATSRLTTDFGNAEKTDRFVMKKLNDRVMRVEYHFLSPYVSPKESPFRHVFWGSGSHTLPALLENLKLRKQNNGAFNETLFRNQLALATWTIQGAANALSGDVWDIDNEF
Method: (§1) Molecular interactions between the synthesized peptides and the transferrin receptor (hTfR) were evaluated by surface plasmon resonance (SPR) using the following method. The specific assay procedure is described below.
An NTA sensor chip (Cytiva) was inserted in a Biacore T200 (Cytiva), a priming operation was performed 3 times with a running buffer: HBS-P+ pH 6.0 (Cytiva), and an equilibrium state was created at a flow rate of 30 µL/min. A ligand immobilization operation was carried out at a flow rate of 10 µL/min.
The surface of the NTA sensor chip was washed with 350 mM EDTA solution, nickel ions were loaded into the carbomethyldextran chains of the sensor chip with a 500 µM aqueous nickel chloride solution, and then washing was performed with 3 mM EDTA solution. After mixing 50 µL of each of 60 mM EDC solution (Cytiva) and 650 mM NHS solution (Cytiva), the mixture was reacted for 420 seconds at a flow rate of 10 µL/min. 150 µL of 0.2 µM hTfR solution was prepared by diluting with 10 mM acetic acid solution (pH 5.0), and reacted for 420 seconds at a flow rate of 10 µL/min to immobilize hTfR on the NTA sensor chip. For the human transferrin receptor (hTfR), the recombinant hTfR described in Example 2 of WO2018/124121 was used. After immobilization, capping was performed by reacting with 1.0 M ethanolamine aqueous solution (Cytiva) at a flow rate of 10 µL/min for 420 seconds. Peptide lysate prepared in DMSO to 10 mM was diluted with the running buffer to a final concentration of 10 µM peptide lysate, and then peptide solutions of 250 nM, 125 nM, 62.5 nM, 25 nM, and 12.5 nM were prepared. The kinetics of the peptide against hTfR was obtained by SPR measurement using the above samples.
(§2) The kinetic evaluation model was single-cycle kinetics, and curve fitting was performed using Biacore T200 Evaluation Software Version 3.0 (Cytiva). The binding of the peptide to hTfR was evaluated by performing curve fitting on the obtained sensorgram by the least squares method and obtaining the kon value, the koff value, and the KD value.

[2] = molecular target: T1, human transferrin receptor (hTfR); assay: SPR measurement under pH 7.4 conditions (Biacore T200, CM3 chip, hTfR captured by His Tag antibody); assay type: binding; details: read-out: hTfR SPR pH7.4 KD
Method: as §1
An CM3 sensor chip (Cytiva) was inserted into BiacoreT200 (Cytiva), then a priming operation was performed three times by using a running buffer: HBS-P+, pH7.4 (Cytiva), and an equilibrium state was created at a flow rate of […]. Ligand immobilization was performed at a flow rate of 10 µL/min. After mixing 50 µL each of 60 mM EDC solution (Cytiva) and 650 mM NHS solution (Cytiva), the mixture was reacted at a flow rate of 10 µL/min for 420 seconds. 150 µL of […] THE His Tag Antibody, mAb, Mouse (GenScript) was prepared by diluting with 10 mM acetic acid solution (pH 5.0), and reacted at a flow rate of 10 µL/ min for 420 seconds. Then, THE His Tag Antibody, mAb, Mouse (GenScript) was immobilized as a capture molecule on the CM3 sensor chip. After immobilization, capping was performed by reacting with 1.0 M ethanolamine solution (Cytiva) at a flow rate of 10 µL/min for 420 seconds. 300 nM hTfR was captured at a flow rate of 10 µL/min, a peptide solution prepared at 10 mM in DMSO was diluted with running buffer to achieve a final concentration of 10 µM, and peptide solutions at 250 nM, 125 nM, 62.5 nM, 25 nM, and 12.5 nM were prepared. . The peptide samples were reacted at a flow late of 30 µL/min for 120 seconds, followed by dissociation for 600 seconds. The kinetics of the peptide against hTfR was obtained by SPR measurement for the above samples.
as §2

CCC(CC)[C@@H]1NC(=O)[C@H](Cc2cnc3ccccn23)NC(=O)[C@H](Cc2ccc(O)cc2)NC(=O)[C@H](CC(N)=O)NC(=O)[C@H](Cc2cn(CC(=O)O)c3ccccc23)NC(=O)[C@H](C(C)C)NC(=O)[C@H](Cc2cccc(Cl)c2)N(C)C(=O)[C@H](C(C)C)NC(=O)[C@H](C)NC(=O)CSC[C@@H](C(=O)NCCOCCOCCOCCOCCC(N)=O)NC(=O)[C@H](Cc2ccc(O)cc2)N(C)C(=O)[C@H](Cc2cccc(C(=O)O)c2)NC(=O)[C@H](CCCNC(=N)N)NC(=O)[C@H](CCC(N)=O)NC(=O)[C@H]([C@@H](C)CC)NC1=O [compound 91] ({CH2CO}-AV[NMePhe(3-Cl)]V[Trp(1-CH2COOH)]NY[Ala(imidazo(1,2-a)pyr3yl)][Nva(3-Et)]IQR[Phe(3-COOH)][NMeY]C[PEG4]-NH2; thioether N-15)
Kd ([1]; SPR, pH 6.0): 44.9 nM
Kd ([2]; SPR, pH 7.4): 5.13 nM

CCC(CC)[C@@H]1NC(=O)[C@H](Cc2ccc(OCC(=O)O)cc2)NC(=O)[C@H](Cc2ccc(O)cc2)NC(=O)[C@H](CC(N)=O)NC(=O)[C@H](Cc2cn(CC(=O)O)c3ccccc23)NC(=O)[C@H](C(C)C)NC(=O)[C@H](Cc2cccc(Cl)c2)N(C)C(=O)[C@H](C(C)C)NC(=O)[C@H](C)NC(=O)CSC[C@@H](C(=O)NCCOCCOCCOCCOCCC(N)=O)NC(=O)[C@H](Cc2ccc(OC)cc2)N(C)C(=O)[C@H](Cc2cccc(C(=O)O)c2)NC(=O)[C@H](CCCNC(=N)N)NC(=O)[C@H](CCC(N)=O)NC(=O)[C@H]([C@@H](C)CC)NC1=O [compound 93] ({CH2CO}-AV[NMePhe(3-Cl)]V[Trp(1-CH2COOH)]NYY(Carboxymethyl)[Nva(3-Et)]IQR[Phe(3-COOH)][NMeY](Me)C[PEG4]-NH2; thioether N-15)
Kd ([1]; SPR, pH 6.0): 49.1 nM
Kd ([2]; SPR, pH 7.4): 10.1 nM

CC[C@H](C)[C@@H]1NC(=O)[C@H](Cc2ccc(O)cc2)NC(=O)[C@H](CCCNC(=N)N)NC(=O)[C@H](CC(N)=O)NC(=O)[C@H](Cc2c[nH]c3ccccc23)NC(=O)[C@H](C(C)C)NC(=O)[C@H](Cc2ccccc2)N(C)C(=O)[C@H](C(C)C)NC(=O)[C@H](C)NC(=O)CSC[C@@H](C(=O)NCC(=O)N[C@@H](CCCCN=[N+]=[N-])C(N)=O)NC(=O)[C@H](Cc2ccc(C(=O)O)cc2)N(C)C(=O)[C@H](Cc2ccc(O)cc2)NC(=O)[C@H](CCCNC(=N)N)NC(=O)[C@H](CCCNC(=N)N)NC(=O)[C@H]([C@@H](C)CC)NC1=O [compound 182] ({CH2CO}-AV[NMeF]VWNRYIIRRY[NMePhe(4-COOH)]CG[Lys(N3)]-NH2; thioether N-15)
Kd ([1]; pH 6.0, single-cycle kinetics): 347 nM
Kd ([2]; pH 7.4, single-cycle kinetics): 92.1 nM
